These are yes or no findings as the source states them, for the method shown. For part of these data: Binding seen in cells or lysates may run through a third protein. Some binding calls cover weakened binding; strength is not graded here.
What was measured:
[1] = biological target: B23 1-160, purified recombinant (human) (UniProt P06748); test: pull-down; purified His-tagged B23.1, B23.2 or B23 1-160 (50 ug) coupled to CNBr-activated Sepharose; extracts of Ad2-infected HeLa cells (18 h post-infection, sonicated in PBS/1 % NP-40) passed over; PBS washes; elution in SDS loading buffer; Western blot for pTP or DBP; only the target purified
[2] = biological target: Nucleolar protein B23.1, His6-tagged, recombinant (human) (UniProt P06748); test: as above
[3] = biological target: Nucleolar protein B23.2, His6-tagged, recombinant (human) (UniProt P06748); test: as above
[4] = biological target: Adenovirus preterminal protein (pTP), baculovirus-expressed, purified (UniProt P03269); test: pull-down; reverse pull-down: purified baculovirus-expressed pTP or DBP immobilised on Sepharose columns; uninfected HeLa cell lysates; Western blot with anti-B23.1 (Fig. 1c); only the target purified
[5] = biological target: Adenovirus preterminal protein (pTP), baculovirus-expressed, purified (UniProt P03269); test: co-IP; mixture containing only recombinant B23.1 and pTP; anti-B23.1 or anti-pTP antibody with protein G-agarose; Western blot for B23.1; both purified

With “Adenovirus DNA-binding protein (DBP) from Ad2-infected HeLa cells (from UniProt P03264 1-529)” the binding [1] was “binds”.

In the case of “Adenovirus preterminal protein (pTP) from Ad2-infected HeLa cells (from UniProt P03269 1-671)”, the binding [1] is reported as “binds”, the binding [2] is reported as “binds” and the binding [3] is reported as “no binding”.

“Endogenous B23.1 of uninfected HeLa cells (from UniProt P06748 1-294)” was tested, and the binding [4] was “binds”.

“Nucleolar protein B23.1, His6-tagged, recombinant (from UniProt P06748 1-294)” was tested, and the binding [5] was “binds”.

— PMC2884980
